PMC11032447, “A hydrophobic groove in secretagogin allows for alternate interactions with SNAP-25 and syntaxin-4 in endocrine tissues” (Proceedings of the National Academy of Sciences of the …, 2024)

T1: mouse secretagogin (mouse, UniProt Q91WD9 1-276)
T1 construct: mouse secretagogin, the three-domain protein (domains A, B, C); construct in Dataset S1; also called mSCGN; SCGN; source: recombinant, produced and purified; E. coli BL21(DE3) named for the pull-down constructs
T1 sequence (looked up): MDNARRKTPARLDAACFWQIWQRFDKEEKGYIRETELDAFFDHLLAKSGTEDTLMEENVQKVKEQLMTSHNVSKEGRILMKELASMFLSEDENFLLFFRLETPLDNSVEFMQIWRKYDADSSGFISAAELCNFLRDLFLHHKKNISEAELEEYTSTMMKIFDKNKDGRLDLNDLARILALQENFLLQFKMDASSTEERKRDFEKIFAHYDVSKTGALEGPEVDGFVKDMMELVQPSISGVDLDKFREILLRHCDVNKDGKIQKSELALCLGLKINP


Biological target: T1, mouse secretagogin
Experiment: ITC; in the presence of Ca2+
Conditions: both partners purified

Binder	Kd
C-terminal SNARE domain of mouse SNAP-25 (domain or fragment, mouse SNAP-25, C-terminal SNARE domain (helix), identical in SNAP25-1 and SNAP25-2; limits in Dataset S1; The pull-down fragments are said to derive from isoform-2; also called SNAP-25c; SNAP-25C; source: recombinant; E. coli BL21(DE3) named for the pull-down constructs) not shown	~8 nM
mouse SNAP-25 isoform 2 (natural protein, mouse SNAP-25-2; construct in Dataset S1; Construct limits are in Dataset S1; also called SNAP25-2; SNAP-25-2; source: recombinant, produced and purified) not shown	~32 nM
